# Assay results: PubChem BioAssay AID463173 (ICCB-Longwood Screening Facility, Harvard Medical School, 2010)
# The campaign covered roughly 52,000 compounds. About 4,300 (8.3%) were called active. Cut-off read from the data, not from the text of the source: active = survival mostly below about 52% (no sharp cut-off); inactive = mostly above about 56%. Some of the results follow.
# Test system: DeltatarO mutant
# Assay: growth inhibition of S. aureus wild type versus tarO mutant, primary screen, teichoic acid synthesis inhibitors, RN4220, OD600 (AID 463173)
# Conditions: OD600, 18 h, active compounds read low, screened at 18.75 µg/mL (by protocol)
row,SMILES,survival
1,COc1cc(NC(=O)c2cc(C3CC3)nc3c2c(C)nn3-c2ccccc2)cc(OC)c1,inactive: 91%
2,COC(=O)Cn1c(=O)c2cccn2c2ccc(F)cc21,inactive: 91%
3,Cc1ccccc1N1CCN(S(=O)(=O)c2nnc(NC(=O)c3ccc(C(C)C)cc3)s2)CC1,active: 38%
4,CCCCCn1c(NCc2ccc(OC)cc2)nc2ccccc21,active: 33%
5,Cc1ccc(NC(=O)CSc2nnc(-c3ccc([N+](=O)[O-])cc3)o2)c(C)c1,inactive: 73%
6,Cc1ccc(C(=O)c2cn(CC(=O)Nc3ccc(C(C)C)cc3)c3nc(C)ccc3c2=O)cc1,inactive: 69%
7,CCS(=O)(=O)N1CCCC(C(=O)NCCOC)C1 (configuration not stated),inactive: 78%
8,CCOc1ccc(CN2CCN(C(=O)c3ccco3)CC2)cc1,inactive: 77%
9,CCCNC(=S)N1CCC(NC(=O)Nc2ccc(C)cc2)CC1,inactive: 66%
10,CN(C)c1ccc(CNC(=O)c2ccc(Cn3c(SCc4ccccc4)nc4cccnc43)cc2)cc1,inactive: 87%
11,Cc1ccccc1CNC(=O)c1ccc2c(c1)c(C)c(C)n2C,inactive: 85%
12,CCc1ccc(CNC(=O)c2cnc3sc(N4CCCC4)nn3c2=O)cc1,inactive: 94%
13,CCCCN(C)C(=O)C1CCN(Cc2ccc(OCc3ccccc3)c(OC)c2)CC1,inactive: 118%
14,Cc1ccc(Cl)cc1NC(=O)C1CCN(c2nnc(C)c3c(C)n(-c4ccccc4)nc23)CC1,inactive: 78%
15,Cc1ccccc1Cn1nnc2c(=O)[nH]c(C3CCN(C(=O)c4ccc(F)cc4)CC3)nc21,active: 52%
16,Cc1cc(C)c(Cn2c3ccccc3c3cnn(CC(=O)NCc4cccs4)c(=O)c32)c(C)c1,inactive: 72%
17,CN(C)S(=O)(=O)N1CCNCC1,inactive: 90%
18,CC(C)c1nn2c(=O)cc(COC(=O)c3ccc(NC(=O)COc4ccccc4)cc3)nc2s1,inactive: 98%
19,COc1ccccc1C(=O)Nc1ccccc1OCc1cc(=O)n2c(C)csc2n1,inactive: 60%

row,SMILES,survival
1,CCc1ccc(-n2c(=O)c3c4c(sc3n(CC(=O)c3ccc(F)cc3)c2=O)CCC4)cc1,inactive: 81%
2,CCC(C)NC(=O)CCCN1C(=O)CCn2nc(-c3cccn3C)cc21 (configuration not stated),inactive: 85%
3,COc1ccc(-c2ccc3c(N)c(C(=O)c4ccc(OC)c(OC)c4)sc3n2)cc1,inactive: 52%
4,CCc1cccc(NC(=O)COC(=O)c2cn(CC)c3nc(C)ccc3c2=O)c1,inactive: 87%
5,CCCc1cc(=O)[nH]c(SCC(=O)N2CCN(c3ccccc3)CC2)n1,inactive: 99%
6,COc1ccc(CNC(=O)CSCc2nc(-c3ccccc3C)oc2C)cc1,inactive: 55%
7,COc1ccc(CNC(=O)c2ccc(-c3nc(CSc4ccccc4)c(C)o3)cc2)cc1OC,inactive: 78%
8,COc1cccc(N2CCN(C(=O)c3ccc(C)c(NC(=O)c4nsc5ccccc45)c3)CC2)c1,inactive: 96%
9,Cc1ccc(N(CC(=O)NCCc2ccc(Cl)cc2)S(=O)(=O)c2c(C)noc2C)cc1,inactive: 87%
10,Cc1ccc(C(c2sc3nc(-c4ccco4)nn3c2O)N2CCCC2)cc1 (configuration not stated),inactive: 73%
11,Cc1cccc(NC(=O)Cn2nnc(-c3nc(-c4ccncc4)no3)c2N)c1,inactive: 85%
12,COc1ccc(CN2CCc3c(c(=O)n4ncc(C(=O)N5CCN(c6ccccc6OC)CC5)c4n3C)C2)cc1,inactive: 89%
13,Cc1ccc(NC(=O)CN2C(=O)c3ccccc3Sc3ccc(C(=O)N4CCOCC4)cc32)cc1F,inactive: 88%
14,CCN(CC)Cc1c(C(C)(C)C)oc(C)c1C(=O)O,inactive: 81%
15,COc1ccc(NC(=O)CN2C(=O)CCn3nc(-c4cccn4C)cc32)cc1Cl,inactive: 83%
16,O=S(=O)(c1ccc(-c2cc(C(F)(F)F)on2)s1)N1CCN(c2ccccc2F)CC1,inactive: 66%
17,[O-][n+]1onc(-c2ccccc2)c1-c1ccccc1,inactive: 88%
18,COC(=O)c1ccccc1NC(=O)c1cc(-c2ccccc2O)no1,inactive: 92%
19,CC(=O)Nc1nonc1-c1nnc(SCC(=O)Nc2ccc(C)cc2)n1-c1ccccc1,inactive: 53%

row,SMILES,survival
1,CCCN1CCN(c2ncnc3sc(C(=O)Nc4ccc(C(C)C)cc4)c(C)c23)CC1,inactive: 73%
2,CCOC(=O)c1sc2cccc(F)c2c1S(=O)(=O)NCc1ccccc1Cl,inactive: 124%
3,O=C(CS(=O)(=O)c1cccc2nsnc12)N1CCN(c2cccc(Cl)c2)CC1,inactive: 100%
4,COc1ccc(-c2cc(-c3ccccc3)c(C#N)c(SCC(O)CS(=O)(=O)Cc3ccc(Cl)cc3)n2)cc1 (configuration not stated),inactive: 152%
5,Cc1cc(C)c(Nc2nc3ccccc3n3c(C)nnc23)c(C)c1,inactive: 76%
6,O=C1CNC(=O)c2c(nc3n2CCC3)N1,inactive: 101%
7,COc1ccccc1OCCn1c(NC(=O)c2ccccc2Cl)nc2ccccc21,active: -3%
8,Cc1ccc(NC(=O)C(=O)NCC(c2cccnc2)N2CCN(Cc3ccccc3)CC2)cc1C (configuration not stated),inactive: 80%
9,CCOc1ccc(Nc2oc(-c3ccc(COc4ccc(OC)cc4)o3)nc2C#N)cc1,inactive: 70%
10,CCOC(=O)C1CCN(c2cc3c(cc2NC(=O)c2ccc(Cl)cc2)n(C)c(=O)n3C)CC1,inactive: 93%
11,COc1ccc(S(=O)(=O)NCc2ccc3c(c2)CCN3C(=O)c2ccccc2)cc1OC,inactive: 73%
12,COC(=O)c1ccc(Cl)cc1NC(=O)N1CC2CCCN2c2ccccc21 (configuration not stated),inactive: 71%
13,COc1ccc(NC(=O)CN2C(=O)CCn3nc(-c4cccn4C)cc32)cc1,inactive: 81%
14,CCOc1ccc2nc(SCC(=O)NCC3CCCO3)c(C#N)cc2c1 (configuration not stated),inactive: 85%
15,O=C1c2cccc3c(N4CCOCC4)ccc(c23)C(=O)N1c1ccccc1,inactive: 98%
16,Cc1ccc(NC(=O)C(Cc2c[nH]c3ccccc23)NC(=O)OC(C)(C)C)c(C)c1 (configuration not stated),active: 27%
17,Cc1cc(C)cc(NC(=O)NCCc2c(C)nn(C)c2C)c1,inactive: 64%
18,Cc1cc2c(cc1S(=O)(=O)CCC(=O)N1CCC(C)CC1)OCC(=O)N2,inactive: 102%
19,CCc1ccc(C(=O)c2cn(CC(=O)Nc3ccc4c(c3)OCO4)c3ccc(CC)cc3c2=O)cc1,inactive: 75%
